Consider one substance from publication PMC3217859.

Amino acid sequences for entries named in this document (tags omitted).
UniProt Q9P289: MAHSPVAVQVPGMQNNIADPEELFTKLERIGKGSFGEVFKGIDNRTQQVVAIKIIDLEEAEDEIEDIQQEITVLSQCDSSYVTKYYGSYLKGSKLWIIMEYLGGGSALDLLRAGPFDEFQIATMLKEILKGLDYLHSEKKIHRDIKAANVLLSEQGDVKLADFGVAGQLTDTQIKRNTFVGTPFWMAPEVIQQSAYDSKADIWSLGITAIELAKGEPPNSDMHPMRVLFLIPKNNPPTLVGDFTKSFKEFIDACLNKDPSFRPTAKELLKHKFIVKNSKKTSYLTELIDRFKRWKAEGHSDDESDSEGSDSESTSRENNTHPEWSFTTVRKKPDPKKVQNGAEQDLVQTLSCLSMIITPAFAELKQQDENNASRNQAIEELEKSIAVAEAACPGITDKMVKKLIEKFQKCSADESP

The assay deals with T1, HA-tagged wild-type striatin (human) (UniProt O43815).
T1 sequence: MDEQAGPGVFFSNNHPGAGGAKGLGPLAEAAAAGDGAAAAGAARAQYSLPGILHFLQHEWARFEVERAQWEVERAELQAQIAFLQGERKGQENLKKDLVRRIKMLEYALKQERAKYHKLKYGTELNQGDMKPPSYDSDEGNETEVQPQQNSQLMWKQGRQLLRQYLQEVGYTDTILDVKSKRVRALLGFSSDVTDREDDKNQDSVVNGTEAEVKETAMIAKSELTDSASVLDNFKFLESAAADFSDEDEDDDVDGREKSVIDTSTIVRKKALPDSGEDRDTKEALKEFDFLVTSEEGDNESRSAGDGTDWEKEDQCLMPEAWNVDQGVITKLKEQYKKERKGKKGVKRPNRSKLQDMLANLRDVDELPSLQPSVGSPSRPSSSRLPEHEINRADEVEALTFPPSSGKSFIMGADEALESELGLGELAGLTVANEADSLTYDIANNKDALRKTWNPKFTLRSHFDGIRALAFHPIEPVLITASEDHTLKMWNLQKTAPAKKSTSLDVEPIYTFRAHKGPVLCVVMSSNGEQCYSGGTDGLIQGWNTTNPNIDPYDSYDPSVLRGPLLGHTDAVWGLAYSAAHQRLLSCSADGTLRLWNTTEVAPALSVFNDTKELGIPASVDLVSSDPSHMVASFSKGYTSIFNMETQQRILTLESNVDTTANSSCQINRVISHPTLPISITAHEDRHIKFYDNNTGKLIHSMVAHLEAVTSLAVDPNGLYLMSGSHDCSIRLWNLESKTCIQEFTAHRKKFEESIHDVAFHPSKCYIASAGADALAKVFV
The assay can be described thus: co-IP; anti-HA immunoprecipitates (12CA5 with protein A-Sepharose, or F7 anti-HA-agarose when probing for Mst3 or Mst4; 1.5 h, 4°C) of lysates (1% Nonidet P-40, 0.135 M NaCl, 10% glycerol, 20 mM Tris pH 8.0) of HEK293 cells transfected with HA-striatins; endogenous partners by immunoblot, partner/HA-striatin ratio by chemilumimager against wild type; 50 mM NaF and 100 nM okadaic acid in the lysis buffer in the phosphorylation experiments. (In general: In western blotting, separated proteins are transferred to a membrane and probed.)

Results are given in words; binding and its absence hold for the method and conditions named. Binding seen in cells or lysates may run through a third protein. Some results given as binding are weak or reduced against the parent protein; the word gives no strength. Where a sequence is shown, tags or fusion partners need not be part of it.

For the substance “Mst4 kinase (from UniProt Q9P289 1-416) (enzyme)”, the binding entry is listed as “binds”.
